Measured values published in the supplement of paper PMC11417369.
This is one part of the list.

system: PfHDP1 homeodomain (GST-tagged); experiment: gcPBM binding intensity (ln(normalized median fluorescence intensity)); higher = stronger DNA binding
Method in brief: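 For binding intensity, the highest Masliner-normalised natural-log median intensity across replicate spots of either probe orientation was taken. Protein bound to the array was stained with Alexa488 anti-GST antibody and scanned at 488 nm. The protein, GST-tagged P. falciparum DNA-binding domains from E. coli at about 25 μg on average, had been applied for 1 h to an Agilent 4 × 180k array of primer-extended double-stranded 36-bp intergenic genomic probes and negative controls.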

Sequence | gcPBM binding intensity (ln)
AAAGACGTTTATAAATGTACATACACTTTAAAAGTT [XGTACX_site8753] | 6.45
AATAGTGTCATAAAAACTATTATCATATAATGTGAA [CACACA_negctrl_site1578] | 6.28
TAATTTATAACACGCGCACACATATATATATAGTAA [CACACA_site121] | 7.29
TTTCTTTTTAACTCTTACATAATAGGTGGTAGAAGG [TGCATGCA_negctrl_site176] | 6.47
TTGTTGTGTATTATCGTGCACATAATATAAAAGATT | 10.5
CATATATACAGTAACACACACAAAAAAATATGAATA [CACACA_site3996] | 6.91
TTATTTATTTATTATAGTTCACTTGAAAATACAAGA [CACACA_negctrl_site1480] | 6.27
AATAACATTATTTTATGTACACATGAAAAATAAAAT [XGTACX_site4657] | 6.5
TGATATTTCATCATAGTGCAATATGGCATATAAATA [GTGCAC_site9433] | 9.54
TGTAATAAACTACTTTTTTTTTTTTTTTTTTTTTTT [CACACA_negctrl_site1021] | 7.2
AATATCAAAATAACATGTACATGTTATATTTTATTT [XGTACX_site5891] | 6.35
CAGAAATATTCTTATACACACTGTTCTTATATTCCT [CACACA_site4318] | 6.77
AATATATATATAAATAGTACATATAAAGAGAATTTT [XGTACX_site3168] | 6.69
TTTATCTTTTTTTGTTGTACAGATGTTTATATTTTA [XGTACX_site4065] | 6.43
ATTAAAACAAAATGTACACACATATAATTTAATGAC [CACACA_site878] | 6.27
AATTATTTTAGAAACACACAAATTAGAAAAAACATA [CACACA_site7673] | 6.76
GTATATATCTCAGAGCATAATAGTATAATTCGGTCA [CACACA_negctrl_site876] | 7.19
TTTCTTTTTTGATGCGTGCACATTTGTTTATTTTTC [GTGCAC_site9792] | 8.48
ACTATTTAATATAGGGTGCAACTTTTTCAAGTAAAT [GTGCAC_site9853] | 9.13
GTATGCATTATATACACACATACATTTATATATTCT [CACACA_site115] | 6.9
ATTATATACATTTTAGTGCATTACATAATAATATAA [GTGCAC_site9836] | 10.4
TATCTTTTTACAATAGTGCATATGTTATCATTAATA [GTGCAC_site9489] | 8.36
TTTATTTATTAATACACACACACACCCAGACAAAAT [CACACA_site4292] | 7.6

Sequence | gcPBM binding intensity (ln)
AGATATATAAATATTACACACTATATATCTATTTAT [CACACA_site6466] | 6.64
ATTTGCCCATTTAATTAACACACAAATGTTTATATT [CACACA_site8145] | 7.02
TTATACTTTGGGTGGTGTACTATATTATGCTTATAA [XGTACX_site1106] | 7.63
TGCTATTTTTTCCTTTTTTTGTATCACAATCATATA [CACACA_negctrl_site1576] | 6.41
ATGTATATATTTACGTGTACATATTCATGTGATATC [XGTACX_site5871] | 6.46
ATTAAACATAAATATGCACACATATACATATATTCA [CACACA_site8850] | 9.5
AGTAATAAAAGTAGAAGTACAATACTTCAAAGATAT [XGTACX_site8562] | 6.38
GTTCTAAAAGTTAATGCATGTTATAAGTTTCCCTCT [TGCATGCA_site94] | 6.53
TATTTCAAAATATGGGTGCAGTTCTTCATGATATAT [GTGCAC_site9658] | 7.01
TTTTTTTTTTTGTGGTGTACCTTTATTTCCTTTTAG [XGTACX_site6934] | 6.18
AAAAAAAAAAAACACACACACACACCGATACATACA [CACACA_site8849] | 6.8
AAAGGGGAAAATATTATACATATAATAAATCCGTAT [XGTACX_negctrl_site355] | 6.26
TGTGTCCATTGAACAGTGCAATAAAAACTTTTACAT | 8.77
TGTGTTCATATATGCACACGCATATATATTATTGTT [CACACA_site3822] | 9.67
ATAAATATGGAGCACACACACATAAACATACATATA [CACACA_site421] | 7.49
ATTTTTATTCTTATTACACACCTAAATATAAAATAT [CACACA_site2064] | 6.88
TTTATATTTATATTGGGTACATAAAAAGCTTGAAAT [XGTACX_site8248] | 6.27
ATTTTTCAATTATGTAGTACATTGATATTTTCATTT [XGTACX_site5369] | 6.26
ACCCCCATATTCTTTTTACACACTTGAATAAAAAAT [CACACA_site8319] | 7.29
ATTCATTTTATTTTTTCACACACACCGATATATATA [CACACA_site9097] | 6.96
TTTATTTGGACATATACACACTTAAATATGTTTATT [CACACA_site6021] | 6.67
TTTATTTTGTTTTCTTGTACATAAATAATTACATAT [XGTACX_site4227] | 6.68
TAAATACAAGTAAAAAGTACAGAAAAATTATATATA [XGTACX_site1758] | 6.45

Sequence | gcPBM binding intensity (ln)
TGATTCACTATAGTAGTGCATATTATATATATATAT [GTGCAC_site9975] | 9.23
TATAATAATTCATAATGTACTTTTATCAAAAAAGTA [XGTACX_site6868] | 6.05
AAGAGAAATGGGCACACACACACATATTATAGATAT [CACACA_site6828] | 6.88
TATAAAAAATTCAATACACACCATATATAAATATAT [CACACA_site6060] | 6.43
CAAATACACGGACACACACACACAAAAAAAAAAAAA [CACACA_site6385] | 6.88
AAATTATTGTAAAATAGTACAGTGAAACATAAAGTT [XGTACX_site589] | 6.48
ATGTGCACATGTAGAAGTACTTTTTCTTAAAATACT [XGTACX_site8341] | 10.9
TATGTTTTATATAAGATGCACTTTTGTTATGCTTCA | 7.51
AAAAAAAAATATATATATATATATATATAATAAAAA [CACACA_negctrl_site639] | 6.75
ATTTATGTTATTGTATGTACACAATATAATGTTATT [XGTACX_site5657] | 6.56
ATTCTACACGCACATACACACATATAAATATAAATA [CACACA_site7582] | 8.16
ACACAAAAATAGTTTTTTATATTGTTAACCTTATAT [XGTACX_negctrl_site123] | 6.58
ATAATATATATGAAATGTACATAAATTTAATGCGAC [XGTACX_site5394] | 7.45
ATATTTTACATATTTGCACACATATATTTAAATACA [CACACA_site4628] | 10.3
TAAAAAGTACATTATTCATGGCCTATTACATTTTTT [GTGCAC_negctrl_site282] | 6.41
AAAAAAAAAAAATGTGCACACGCGTACAGACAAAAA [CACACA_site2005] | 9.43
ATTTATATTTTTTAATGTACATTTATATGTATACAA [XGTACX_site4555] | 6.82
CGATATTCTAAGGATAGTACATAATAAAATAGAGTA [XGTACX_site4224] | 6.46
TAAAATAGAAATATATGTACATATATATATGTATAT [XGTACX_site4134] | 6.4
TTTTTATTCAACAAAAATATCAAACATAATTATAAA [CACACA_negctrl_site616] | 6.86
AATATTTATATTTACACACACATAATACATATATGT [CACACA_site33] | 6.55
ATATACAACTAAAGAACACACATCATTGTTCATTGG [CACACA_site3681] | 6.42
ATTTTTATGTCTTTCTATAAATCGAAAATATACATA [CACACA_negctrl_site477] | 6.29

Sequence | gcPBM binding intensity (ln)
TTCCTTTAACCCTGCACACATACATACATTTATATG [CACACA_site3953] | 8.51
AAAAAACGCACTCGTACACACATATTTTCTTTCTAA [CACACA_site3089] | 7.18
AATATTTACCAGAAAATAAAAATATGTATATATATA [CACACA_negctrl_site351] | 7.56
TTAATTACACAAAAAAGTACTTGATATTGTTTATTA [XGTACX_site3449] | 6.18
ATATAATCAACTGCAAAGGTTTAAAAGGAAAAAATA [CACACA_negctrl_site989] | 6.43
TCCTTAGAAATATTGATCATAAACTGGAAAGGTATA [XGTACX_negctrl_site354] | 6.39
TGTATTATTAATATTTGTACGTAATAATAAAAACAT [XGTACX_site3716] | 6.51
TGGAAACAAAAACACACACACAAAAAAAAAAAAAAA [CACACA_site3209] | 6.27
GAAATATATAAATTGACACACACATATATACATATA [CACACA_site8323] | 6.58
ATTCAAAATAATCACAGTACACATGAGATTATCTTT [XGTACX_site2197] | 6.23
TAATTTCTTATGTATTGTACAAATAATATATTATTT [XGTACX_site3066] | 6.9
TTATTGAAAAACATAATATCTAAGAGGGTAATATAT [GTGCAC_negctrl_site599] | 6.4
ACTTCATAAACATTTTGTACGTATGTATCTTTTTAT [XGTACX_site7012] | 6.75
TTAATATGGAAATGTTGTACATTTCTTGAAGCATTC [XGTACX_site525] | 6.11
ATTATCCATGCATTTACACACACACTAATAAAAATT [CACACA_site9358] | 7.54
CATAAATACAGATATACACACATATATATATATATA [CACACA_site4528] | 9.33
TTTAACATAAATTAAACACACAATAAAATACATTAA [CACACA_site6699] | 6.6
ATAATACATATAGAAGGTACACTATTATTTTCCTGA [XGTACX_site903] | 6.13
GAGGTACATTAATTAGTGCATTAAAATTTTTATCCT | 9.85
ATATAGTAAATGTTCACACATACAAATATATATATA [CACACA_site5518] | 8.53
